In article PMC12136788:
The other results are listed elsewhere or left out.

B1: ENSG00000107863:be:win_3001|CDS|ENSG00000107863|bound_else_gene|NA|bound_elsewhere_windowed (ssRNA)
RNA: GGGAGUUCUACAGUCCGACGAUCAGUGAGACCAAGAGGAAAAAUGUGUUUCGACUCACCACGUCCGACUGUGAAUGCCUGUUUCAGGCUGAAGACAGAGAUGAUAUGCUAGCUUGGAUCAAGACGAUCCAGGAGAGCAGCAACCAACAGAGGAUUGAGCAUCA
B2: chr22:36281740:36281783:-|3pUTR|ENSG00000100345|msi1_unk|FALSE|overlapping (ssRNA)
RNA: GGGAGUUCUACAGUCCGACGAUCUCUGACAGCCAGAGCGUUAGAGGGGCCAGCGGCCCUCCCAGGCGAUCUUGUGUCUACUCUAGGACUGGGCCCGAGGGUGGUUUACCUGCACCGUUGACUCAGUAUAGUUUAAAAAUCUGCCAACAGAGGAUUGAGCAUCA
B3: chr3:154276180:154276282:-|CDS|ENSG00000174953|unk|FALSE|unique (ssRNA)
RNA: GGGAGUUCUACAGUCCGACGAUCUCAUCCUGUAGACUGGAAUGACACUAAAUCCAGAGACUGUGCAGUACUGUCAGCUAUUAUAGACUUGAUCAAAACACAGGAAAAGGCAACUCCCAGGAACUUUCCGCCACGAUUCCAGGACAACAGAGGAUUGAGCAUCA
B4: chr7:99705035:99705499:-|three_prime_utr|ENSG00000160870|control|control|control (ssRNA)
RNA: GGGAGUUCUACAGUCCGACGAUCGUUUGCUCUUUAAGAAAGCUGUGCCCCAGAACACCAGAGACCUCAAAUUACUUUACAAAUAGAACCCUGAAAUGAAGACGGGCUUCAUCCAAUGUGCUGCAUAAAUAAUCAGGGAUUCUGCAACAGAGGAUUGAGCAUCA
B5: ENSG00000107863:be:win_6151|3pUTR|ENSG00000107863|bound_else_gene|NA|bound_elsewhere_windowed (ssRNA)
RNA: GGGAGUUCUACAGUCCGACGAUCAGAAAAUCGCUGGCAUCAGUGUGCAGCAAAUUUGUUCUUUUGGUUUCAUCACUAACAAAAGUGCCUCAUCAUAAAAAUACAGUUGGUUUUUAGGGUGCCAUAUUGUUAAAAUUAGAUAACCAACAGAGGAUUGAGCAUCA
B6: ENSG00000120693:stop:overlap|stop_codon|ENSG00000120693|stop_codon|NA|stop_codon (ssRNA)
RNA: GGGAGUUCUACAGUCCGACGAUCGCAUUAACCCUUACCACUACCGCCGGGUGGAGACUCCAGGUGACUUUGCGGUGAUCCUCUAGGAGCUUUUGGAAUAUUCCAGUUAUCCCGCAGUGUUUGAAAUUCAAGAUGGAAAGACUACAACAGAGGAUUGAGCAUCA

What follows are binders tested against MSI1 full-length (mouse, UniProt Q61474 1-362) (assay: nsRBNS (natural sequence RNA bind-n-seq); RBNS binding buffer (assumed for nsRBNS): 25 mM Tris pH 7.5, 150 mM KCl, 3 mM MgCl2, 0.01% Triton X-100, 500 ug/ml BSA, 20 U/ml SUPERase-In, 4 C; UNK is unkempt and MSI1 is Musashi-1; names of the RNAs are library labels; protein concentration not given here; high values mean tight binding).
UniProt Q61474, sequence (Q61474 whole entry): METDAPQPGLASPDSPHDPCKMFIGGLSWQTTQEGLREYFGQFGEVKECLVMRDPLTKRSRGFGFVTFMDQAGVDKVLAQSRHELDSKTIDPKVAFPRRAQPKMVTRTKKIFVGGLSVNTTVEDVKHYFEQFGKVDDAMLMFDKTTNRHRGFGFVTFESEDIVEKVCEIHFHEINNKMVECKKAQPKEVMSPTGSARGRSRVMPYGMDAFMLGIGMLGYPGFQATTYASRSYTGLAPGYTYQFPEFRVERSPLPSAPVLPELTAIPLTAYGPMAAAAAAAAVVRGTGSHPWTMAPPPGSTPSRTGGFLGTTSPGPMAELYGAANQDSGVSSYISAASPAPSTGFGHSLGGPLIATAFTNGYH
With B1 the binding signal was 0.356 enrichment R.
For B2, the binding signal was 0.774 enrichment R.
Work on B3 yielded a binding signal of 0.741 enrichment R.
B4 showed a binding signal of 0.529 enrichment R.
For B5, the binding signal was 0.809 enrichment R.
B6 gave a binding signal of 3.03 enrichment R.
